Out of some 43,000 compounds screened, about 200 (0.47%) were called active. Another 12% or so got no clear call; they are omitted. Calls follow the shape of the dose curve; as a rule, active = well fitted cell-killing curve with a large enough effect; inconclusive = small, poorly fitted or top-dose-only effect, or effect the other way; inactive = flat fitted curve, though single readings scatter. This is one part of the list.
% is scaled to controls: 0 for no effect and ±100 for the full control effect.

The experiment is described as follows: Cell viability qHTS assay in S16 Pmp22-F2sN cells. Also: nearly all actives have a fitted effect of over 65% in size. The note with it: S16 Pmp22-F2sN Schwann cells viability, CellTiter-Glo, 24 h; series mostly up to 57.5 µM; activity change, negative = cytotoxicity: at the top concentration. The gist of the method: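 Used to flag compounds lowering reporter output through toxicity, this quantitative HTS measures ATP-based CellTiter-Glo luminescence in S16 Pmp22-F2sN Schwann cells after 24 h compound exposure at 37C.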
In general terms: In qHTS, concentration-response curves come from the screen itself.
Regarding `CCc1ccc(C(=O)c2cnc3ccc(C)cc3c2S(=O)(=O)c2ccc(OC)cc2)cc1`, the “activity change, negative = cytotoxicity” value was inactive: -0.151%.
Under `COCCc1nn2c(=O)cc(COC(=O)c3cccs3)nc2s1` stands inactive: 6.15%; under `CCOc1ccccc1NC(=O)CN(CCc1ccccc1)S(=O)(=O)c1ccc(C)cc1`, inactive: -10.7%.
For `Cn1nnc2c(N3CCCCC3)ncnc21`, the “activity change, negative = cytotoxicity” value was inactive: -8.19%.
As to `CCc1cccc(C)c1NC(=O)CN1C(=O)c2c(c3ccccc3n2C)C1c1ccc(OC)cc1` (stereo not drawn), the “activity change, negative = cytotoxicity” value is inactive: -4.29%.
For `CCn1ccc2cc(S(=O)(=O)N3CCC(C(=O)NCCc4ccc(SC)cc4)CC3)ccc21` the value was inactive: -28.1%.
Under `Clc1ccc(CNc2nc3ccccc3c3nc(-c4cccnc4)nn23)cc1` stands inactive: 8.5%; under `COc1cc2cc(CNc3ccc(C)cc3)c(=O)n(CC(=O)Nc3ccc(C(C)C)cc3)c2cc1OC`, inactive: -3.36%; under `COc1ccccc1NC(=O)c1ccccc1NC(=O)c1ccccc1`, inactive: 14.3%.
Take `CN(C)c1ccc(CNC(=O)CCC(=O)N2Cc3ccccc3Oc3ncccc32)cc1`: the “activity change, negative = cytotoxicity” value is inactive: -0.814%.
As for `COc1ccc(NC(=O)CSc2nc(-c3ccc(OC)cc3)[nH]c2-c2ccc(F)cc2)cc1`, the “activity change, negative = cytotoxicity” value is inactive: -5.47%.
Under `Cc1ccc(CN(C(=O)COc2ccc(C(C)(C)C)cc2)C2CCS(=O)(=O)C2)o1` (stereo not drawn) stands inactive: -3.32%; under `CCc1ccccc1NC(=O)C(NS(=O)(=O)c1ccc2c(c1)CCC(=O)N2)c1ccccc1` (stereo not drawn), inactive: -1.24%; under `CCCCN(C)C(=O)CN1C(=O)CCn2nc(-c3cn(C)c4ccccc34)cc21`, inactive: 11.2%.
Under `COc1cccc(CCNC(=O)c2c(O)nc3cc(C)ccn3c2=O)c1` stands inactive: -0.233%.
Under `COc1ccc(C2=NN(CC(=O)NCc3ccccc3Cl)C(=O)CC2)cc1` stands inactive: 6.93%.
Take `CCc1cccc(NC(=O)c2nc(-c3ccncc3)no2)c1`: the “activity change, negative = cytotoxicity” value is inactive: -2.01%.
Under `CCOc1ccc(C(=O)Nc2ccc(-c3nc4cc(C(C)C)ccc4o3)cc2)cc1Cl` stands inactive: -7.55%; under `COc1cccc(CNC(=O)N2CCC(CN3CCC(C)CC3)CC2)c1`, inactive: 3.73%; under `Cc1ccc(CCNC(=O)c2c(C)oc3ncnc(N4CCOCC4)c23)cc1`, inactive: -1.89%.
For `Fc1cccc(NCc2cccn2-c2nnc(N3CCOCC3)s2)c1` the value was inactive: 4.59%; for `COc1cccc(NC(=O)Cn2c(=O)n(CCc3ccccc3)c(=O)c3c4c(sc32)CN(C(C)=O)CC4)c1`, inactive: -0.0383%; for `CCOc1ccc(NC(=O)NCc2ccc3c(c2)CCN3C(C)=O)cc1`, inactive: 24.8%.
Under `CCOC(=O)c1cc2c(=O)n3ccccc3nc2n(CC2CCCO2)c1=NC(=O)c1ccc(OC)cc1OC` (stereo not drawn) stands inactive: -17.1%; under `Cc1cc(C)n(-c2nc3ccccc3nc2N2CCN(c3cccc(C)c3C)CC2)n1`, inactive: -3.37%.
With `CCCNC(=O)C(CC)n1nc(CC)n2c(cc3oc(C)cc32)c1=O` (stereo not drawn), the “activity change, negative = cytotoxicity” value is inactive: -2.11%.
Turning to `CCOC(=O)N1CCc2c(sc3c2C(=O)NC(c2cc(OC)c(O)c(OC)c2)N3)C1` (stereo not drawn), the “activity change, negative = cytotoxicity” value is inactive: 2.78%.
Under `COc1cccc(C(=O)c2cn(CC(=O)NCCc3ccccc3)c3nc(C)ccc3c2=O)c1` stands inactive: -0.797%; under `CCCN(CCC)CCCNC(=O)Cn1cc2c(n1)-c1c(oc(C(=O)N3CCCC3)c1C)CC2`, inactive: 1.26%; under `CCOC(=O)c1c(NC(=O)CSc2cn(CCNC(=O)c3ccccc3OC)c3ccccc23)sc2c1CCC2`, inactive: 4.59%.
For `CC(C)c1nc2n(n1)C1(CCCCC1)[C@@H]1CCCC[C@@H]1N2` the value was inactive: 2.55%; for `O=C(CSc1nc2c([nH]c3ccccc32)c(=O)n1-c1cccc(Cl)c1)N1CCOCC1`, inactive: 3.8%; for `COc1cccc(CNC(=O)C2(c3cccs3)CCOCC2)c1`, inactive: 3.33%.
For `COc1c(Cl)cc(C(=O)N(Cc2ccc(C)o2)C2CCS(=O)(=O)C2)cc1Cl` (stereo not drawn) the value was inactive: -4.32%.
As for `Cc1cccc(Cn2c(C)c(CNC3CCCCCC3)c(C(=O)O)c2C)c1`, the “activity change, negative = cytotoxicity” value was inactive: 5.31%.
Under `O=C(Cn1c(=O)c2ccccc2n(CC(=O)Nc2ccc(F)cc2)c1=O)NCCc1ccccc1` stands inactive: 19.5%; under `COc1ccc(-c2nc3c4ccccc4n(CC(=O)N4CCN(c5ccc(F)cc5)CC4)c(=O)n3n2)cc1`, inactive: 1.17%.
Under `CC(C)(C)c1ccccc1NC(=O)CSc1nc(-c2cccs2)cc(C(F)(F)F)n1` stands inactive: -16.6%; under `Cc1nn(CC(=O)Nc2cc(F)ccc2F)c(=O)c2cccn12`, inactive: 2.38%; under `CC(C)c1noc(-c2ccccc2OCC(=O)Nc2ccccc2[N+](=O)[O-])n1`, inactive: -28.7%.
For the compound `CCN(C(=O)c1cc2c(=O)n3cccc(C)c3nc2s1)c1ccc(C)c(C)c1`, the “activity change, negative = cytotoxicity” value is inactive: -5.84%.
Under `CCC(NC(=O)Nc1cc(OC)ccc1OC)c1c(-n2cccc2)sc2c1CCN(CC)C2` (stereo not drawn) stands inactive: 5.37%; under `Cc1c(CNC2CCCCC2)c(C(=O)O)c(C)n1Cc1ccc(F)cc1`, inactive: 0.178%; under `CCC(=O)Nc1ccc2nc3c(=O)n(C)c(=O)n(C)c3nc2c1`, inactive: 3.51%.
Under `CCOC(=O)COc1ccc([N+](=O)[O-])cc1-c1ccnc2cc(-c3ccc(C)cc3)nn12` stands inactive: 10.6%; under `COc1ccc(C(=O)N(c2ccc(OC)cc2)S(=O)(=O)c2ccc3c(c2)n(C)c(=O)n3C)cc1`, inactive: -10%; under `CCOC(=O)c1ccc(NC(=O)C2(S(=O)(=O)c3ccc(Cl)cc3)CC2)cc1`, inactive: 12.4%.
In the case of `C=Cc1ccc(COc2ccc3oc(-c4ccccc4)c(C(=O)OCC)c3c2)cc1`, the “activity change, negative = cytotoxicity” value was inactive: 7.48%.

Source of the values: PubChem BioAssay AID1508642 (National Center for Advancing Translational Sciences (NCATS), 2021).
